Data reported in PubChem BioAssay AID1434 (Sanford-Burnham Center for Chemical Genomics, 2008).
Some of the results follow. Shown are side measurements of this screen, not its main read-out; they come without a call. Most of these compounds were active or inconclusive in the main read-out, so they are no random draw.

These compounds were tested against Runt-related transcription factor 1 (Homo sapiens) + Core-binding factor subunit beta (Homo sapiens) (UniProt Q01196+Q13951) (assay: inhibitors of RUNX1 Runt–CBFb-SMMHC binding, primary screen, biochemical, FRET, Cerulean-Runt, Venus-CBFb-SMMHC, uHTS (AID 1434;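 further: 0% = DMSO wells and 100% = wells with excess untagged CBFb-SMMHC; inhibitors lower the FRET ratio by blocking Runt binding to CBFb-SMMHC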)). Settings: Cerulean-Runt/Venus-CBFb-SMMHC FRET ratio 530/480, 1 h; retest duplicate average; at 20 µM; stronger effect = higher value.
Chain of UniProt Q01196 (Q01196 whole entry, looked up): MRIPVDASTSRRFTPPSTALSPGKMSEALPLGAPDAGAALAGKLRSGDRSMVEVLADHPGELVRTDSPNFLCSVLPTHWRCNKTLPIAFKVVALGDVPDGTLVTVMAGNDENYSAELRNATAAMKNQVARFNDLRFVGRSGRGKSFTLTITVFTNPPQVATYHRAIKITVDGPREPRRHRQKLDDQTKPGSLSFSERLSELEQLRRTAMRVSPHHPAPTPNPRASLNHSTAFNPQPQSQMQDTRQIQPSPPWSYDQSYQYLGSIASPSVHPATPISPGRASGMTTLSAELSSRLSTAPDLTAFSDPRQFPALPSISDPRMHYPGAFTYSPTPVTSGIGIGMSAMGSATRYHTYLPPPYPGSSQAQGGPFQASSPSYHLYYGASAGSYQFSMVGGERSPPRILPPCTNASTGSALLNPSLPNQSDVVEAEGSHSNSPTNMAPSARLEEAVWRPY
Chain of UniProt Q01196 (Q13951 whole entry, looked up): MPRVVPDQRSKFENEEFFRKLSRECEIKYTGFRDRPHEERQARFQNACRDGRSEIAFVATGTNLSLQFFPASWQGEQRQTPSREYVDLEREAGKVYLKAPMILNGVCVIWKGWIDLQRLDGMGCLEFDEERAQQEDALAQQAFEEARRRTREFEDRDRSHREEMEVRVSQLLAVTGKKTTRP

| Compound | inhibition |
| --- | --- |
| COc1ccc2o/c(=N\O)c(C(=O)Nc3ccccc3OC)cc2c1 | 80.8% |
| COc1ccc(S(=O)(=O)N(C(C)=O)c2ccc3oc(=O)sc3c2)cc1 | 52.2% |
| Cc1oc(/N=C/c2ccc(O)cc2O)c(C#N)c1C | 131% |
| CCn1nc(NC(=O)c2ccccn2)c2cc3cc(C)ccc3nc21 | 85.1% |
| Cc1cc(C(=O)O)ccc1-c1ccc(/C=C2\NC(=O)N(Cc3ccccc3Cl)C2=O)o1 | 75% |
| CN1CCc2c(sc3c2C(=O)NC(c2ccc4c(c2)OCO4)N3)C1 (centres undefined) | 171% |
| COc1cc(C2C3=C(CC(C)(C)CC3=O)Nc3c2c(=O)[nH]c(=O)n3Cc2ccccc2)ccc1O (centres undefined) | 134% |
| Cc1ccccc1N=Cc1cc2c(cc1O)OC(N)=C(C#N)C2c1ccccc1 (centres undefined) | 107% |
| Oc1ccc2ccccc2c1/C=N/n1cnnc1 | 117% |
| COc1ccccc1-n1c(SCc2cc(=O)oc3cc(O)ccc23)nc2ccccc2c1=O | 52.7% |
| CCCc1cc(NCC2CCCO2)n2c(nc3ccccc32)c1C#N (centres undefined) | 72.7% |
| CCCCN1C=C(C(=O)OC)C(c2ccccc2C(F)(F)F)C(C(=O)OC)=C1 | 137% |
| C=CCNC(=O)/C(C#N)=C/c1c(N(Cc2ccccc2)Cc2ccccc2)nc2ccccn2c1=O | 73.4% |
| CCCn1nc(NC(=O)c2cccs2)c2cc3ccccc3nc21 | 52.1% |
| O=c1cc(CSc2nc3ccccc3c(=O)[nH]2)c2ccc(O)cc2o1 | 55.3% |
| CCN(CC)c1ccc(C(=O)OCc2cc(=O)oc3cc(O)ccc23)cc1 | 91.6% |
| CC(=O)N=c1c(C#N)cc2c(=O)n3cccc(C)c3nc2n1CCCOC(C)C | 70.6% |
| CCCCCCc1cc2cc(S(=O)(=O)c3ccc(F)c(Cl)c3)c(=O)oc2cc1O | 71.5% |
| Nc1cccc2c1C(=O)N(C(=O)/C=C/c1ccc(F)cc1)C2=O | 70.6% |
| CC(OC(=O)c1cc2c(ccc3ccccc32)oc1=O)c1nc2ccccc2s1 (centres undefined) | 84.7% |
| CC(C)N1CCc2c(sc(NC(=S)NC(=O)c3ccccc3)c2C#N)C1 | 71.5% |
| CC(=O)Nc1ccc(S(=O)(=O)Nc2nc3ccccc3nc2Sc2nncn2C)cc1 | 102% |
| Cc1cc(N2CCN(C3CCCC3)CC2)n2c(nc3ccccc32)c1C#N | 51.1% |

| Compound | inhibition |
| --- | --- |
| CCOC(=O)c1cc2c(=O)n3ccccc3nc2n(C(C)C)c1=NC(=O)c1c(-c2c(F)cccc2Cl)noc1C | 111% |
| N#CC1=C(N)N2C(=C(C#N)C1c1ccc(Br)cc1)Nc1ccccc12 (centres undefined) | 71.5% |
| CCCc1cc(-n2ccnc2)n2c(nc3ccccc32)c1C#N | 104% |
| Nc1c(C(=O)OCC2CCCO2)c2nc3ccccc3nc2n1C1CCCC1 (centres undefined) | 117% |
| CN1C=CC2=C(C#N)C(N)C(C#N)(C#N)[C@H](c3ccccc3)[C@H]2C1 (some centres undefined) | 71.5% |
| CN1CCN(c2nc(-c3ccccc3)c3cc(Cl)ccc3n2)CC1 | 90.3% |
| Cc1ccc(/C=C2\Oc3c(ccc(O)c3CN3CCN(C)CC3)C2=O)cc1 | 70.6% |
| COc1cc(/C=C2\SC(c3ccccc3)=NC2=O)cc(Cl)c1O | 60.5% |
| Cc1cccc(C)c1NC(=O)C1=C(O)c2sccc2N(C)S1(=O)=O | 71.2% |
| Nc1c(C(=O)NCCN2CCOCC2)c2nc3ccccc3nc2n1CCc1ccccc1F | 93.3% |
| CCN(CC)c1ccc(/C=N/NC(=O)c2cccc(S(=O)(=O)Nc3ccccc3OC)c2)c(O)c1 | 70.5% |
| CC(=O)NNc1cc(N2CCOCC2)nc(N2CCOCC2)n1 | 71.4% |
| CCN(C)c1ccc(/C=N\n2nnnc2N)cc1 | 90.7% |
| CCOCCCn1c(=N)c(C(=O)NCc2ccc3c(c2)OCO3)cc2c(=O)n3cccc(C)c3nc21 | 120% |
| CN1CCN(C2=CC3=CC(=C(C#N)C#N)CCC3CC2)CC1 (centres undefined) | 70.6% |
| Cc1cc(C)c2nc(N3CCCN(C(=O)c4ccco4)CC3)c(C#N)cc2c1 | 69% |
| N#Cc1c(N)n(C2CCCCC2)c2nc3ccccc3nc12 | 86.8% |
| CC(C)Cn1c(N)c(C(=O)NCCN2CCOCC2)c2nc3ccccc3nc21 | 106% |
| Clc1ccc(N2N=C(c3cccs3)CC2c2ccco2)cc1 (centres undefined) | 68.2% |
| O=c1[nH]c(=O)c2nc(-c3ccc(Cl)cc3)cnc2[nH]1 | 70.6% |
| O=C(O)c1ccc(N/N=C/c2ccc(-c3cc(Cl)ccc3Cl)o2)cc1 | 70.6% |
| COC(=O)Cc1c(C)c2ccc(O)c(CN3CCCC(C)C3)c2oc1=O (centres undefined) | 174% |
| CCn1nc(NC(=O)Cc2ccc(OC)cc2)c2cc3cccc(C)c3nc21 | 94.9% |

| Compound | inhibition |
| --- | --- |
| CCN1C(=O)c2cccc3c(S(=O)(=O)NCc4cccnc4)ccc1c23 | 64% |
| CC(=O)N(C)/C=C1\Sc2ccccc2C1=O | 54.4% |
| Cc1nc2nc(-c3ccc(Cl)cc3)cn2nc1C | 72.9% |
| CC1(C)CC(=O)C2=C(C1)Nc1ccccc1NC2 | 70.2% |
| Cc1ccc2nc3c(cc(C#N)c(=O)n3CC3CCCO3)c(=O)n2c1 (centres undefined) | 72.9% |
| CCCc1cc(NCCCCO)n2c(nc3ccccc32)c1C#N | 55.6% |
| OCCNc1c2ccccc2nc2ccccc12 | 154% |
| CCN(CC)c1ccc(/C=N/NC(=O)c2ccc3nc[nH]c3c2)c(O)c1 | 67% |
| COC(=O)C1=CN(C2CC2)C=C(C(=O)OC)C1c1ccc(C(=O)OC)cc1 | 142% |
| O=C(NNC(=O)C1[C@H]2CCCC[C@@H]12)c1ccc(=O)oc1 (some centres undefined) | 104% |
| O=c1c2ccccc2n(CC(O)CN2CCCCC2)c2ccccc12 (centres undefined) | 70.6% |
| Cc1cccn2c(=O)c3cc(C(N)=S)c(=N)n(CCCOC(C)C)c3nc12 | 72.9% |
| CCNc1ccc2c(Cl)cc(=O)oc2c1 | 116% |
| CC(=O)N=c1c(C#N)cc2c(=O)n3ccccc3nc2n1Cc1ccccc1 | 150% |
| CCN1CCc2c(C#N)c(N3CCOCC3)nc(NCCO)c2C1 | 72.9% |
| CCc1c(C)c(C#N)c2nc3ccccc3n2c1NCC1CCCO1 (centres undefined) | 66.7% |
| O=c1oc2c(CN3CCOCC3)c(O)ccc2c2c1CCCC2 | 85.4% |
| CCN(CC)c1ccc(/C=C(\C#N)C(N)=O)cc1 | 67.2% |
| Cc1ccc(C2NC(=O)c3c(sc4c3CCN(C)C4)N2)s1 (centres undefined) | 147% |
| CCc1nc(SCC(=O)c2ccc3c(c2)OCCO3)c2ccccc2n1 | 68.5% |
| COCCn1c(CCC(=O)O)ccc1-c1cccs1 | 76.3% |
| CN(C)Cc1c(O)ccc2c3c(c(=O)oc12)CCCCC3 | 139% |
| CC1=CC(c2ccccc2)n2nc(NS(=O)(=O)c3ccc(C)cc3)nc2N1 (centres undefined) | 86.7% |
